Reference: PubChem BioAssay AID1508623 (National Center for Advancing Translational Sciences (NCATS), 2021)
Screen size: about 48,000 compounds; about 450 (0.94%) were called active. Inconclusive results, whose numbers are uncertain, are shown with a selection of clear calls. Calls follow the shape of the dose curve; as a rule, active = well fitted inhibition curve with a large enough effect; inconclusive = small, poorly fitted or top-dose-only effect; inactive = no such curve, though single readings can be large or run the other way. Potencies beside an inconclusive call are fits to weak or partial responses and may not hold up.

test: Primary qHTS for Identification of Small Molecule Inhibitors of Huntingtin Promoter Activity; details: HEK293 HTT promoter firefly luciferase reporter (activity 0% = vehicle and -100% = no light), 24 h; series mostly up to 57.5 µM; also: nearly all actives have a fitted effect of over 50% in size
How it was run: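 Firefly luciferase readout (Dual-Glo, 10 min RT) after 24 h, 37 °C compound exposure (final up to 57.5 uM) of HEK293 reporter cells cultured 24 h beforehand; PTC124 at 50 uM final as control inhibitor; activity scaled vehicle 0%, zero RLU -100%.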
Potency is read from the fitted curve at half-maximal effect; tags tell the direction and shape of the fitted curve.

| SMILES | Potency |
| --- | --- |
| CCOc1cccc(C(=O)Nc2nc3c(s2)CC(C(C)(C)C)CC3)c1 (configuration not stated) | inactive |
| CCCCN1C(=O)C(O)(CC(=O)c2ccc(C)cc2C)c2cc(Br)ccc21 (configuration not stated) | inconclusive: 28.2 µM [inhibitor, partial curve, poor fit] |
| O=C(NCc1ccco1)c1ccc2c(c1)N(Cc1ccc(F)cc1)C(=O)c1ccccc1S2(=O)=O | inconclusive: 28.2 µM [inhibitor, single point] |
| COc1cccc(CNC(=O)c2cc(Sc3cccc(Cl)c3)nc3ccccc23)c1 | inconclusive: 31.6 µM [inhibitor, single point] |
| CC(=O)N1c2ccc(S(=O)(=O)Nc3ccc(Cl)cc3C)cc2CC1C (configuration not stated) | inconclusive: 31.6 µM [inhibitor, partial curve, poor fit] |
| COc1ccccc1NC(=O)COc1ccc(-c2nn(C)c(=O)c3ccccc23)cc1 | inconclusive: 39.8 µM [inhibitor, single point] |
| Cc1sc(-c2cc3c([nH]c2=O)CC(c2ccccc2)CC3=O)nc1-c1ccc(Cl)cc1 (configuration not stated) | inconclusive: 2.51 µM [inhibitor, full curve] |
| Cc1c(C(=O)N2CCOCC2)oc2c1-c1nn(CC(=O)NCc3cccc(Cl)c3)cc1CC2 | inconclusive: 35.5 µM [inhibitor, single point] |
| CCCCS(=O)(=O)c1oc(-c2ccc(F)cc2)nc1S(=O)(=O)c1ccc(C)cc1 | inconclusive: 39.8 µM [inhibitor, single point] |
| O=C(NCc1cccc(F)c1)c1ccc(NC(=O)c2nsc3ccccc23)cc1 | inconclusive: 39.8 µM [inhibitor, single point] |
| CCOC(=O)c1c(NC(=O)COc2cccc(C)c2C)sc2c1CCC(CC)C2 (configuration not stated) | inconclusive: 5.62 µM [inhibitor, single point] |
| CC(C)(C)c1ccc(C(=O)Nc2onc3c2CCCC3)cc1 | inconclusive: 39.8 µM [inhibitor, single point] |
| COc1cccc(NC(=O)CC2Nc3cc(C)c(C)cc3NC2=O)c1 (configuration not stated) | inactive |
| Cc1ccc(CN(Cc2ccco2)C(=O)COc2ccc(C)c(C)c2)cc1 | inactive |
| CCOc1ccc(NS(=O)(=O)c2ccc3c4c(cccc24)C(=O)N3)cc1 | inconclusive: 15.8 µM [inhibitor, partial curve, poor fit] |
| CC(C)(C)c1ccc(C(=O)NCC(c2ccc(Cl)cc2)N2CCOCC2)cc1 (configuration not stated) | inconclusive: 22.4 µM [inhibitor, partial curve, poor fit] |
| COc1ccc(/C=C/C(=O)Nc2nc(-c3cccs3)ns2)cc1OC | inconclusive: 31.6 µM [inhibitor, single point] |
